Test results taken from paper PMC12689633.
Results are given in words; binding and its absence hold for the method and conditions named. In cells and extracts the contact can be indirect. Some binding calls cover weakened binding; strength is not graded here.

The chains behind the UniProt entries cited, without tags or fusion partners. Where a name states a change or a piece, a line headed by the entry shows the natural chain unless it says otherwise. A line that says so, or that is headed by a name, gives the form on record, which may keep a tag or linker. Residues count along the entry.
UniProt Q12888: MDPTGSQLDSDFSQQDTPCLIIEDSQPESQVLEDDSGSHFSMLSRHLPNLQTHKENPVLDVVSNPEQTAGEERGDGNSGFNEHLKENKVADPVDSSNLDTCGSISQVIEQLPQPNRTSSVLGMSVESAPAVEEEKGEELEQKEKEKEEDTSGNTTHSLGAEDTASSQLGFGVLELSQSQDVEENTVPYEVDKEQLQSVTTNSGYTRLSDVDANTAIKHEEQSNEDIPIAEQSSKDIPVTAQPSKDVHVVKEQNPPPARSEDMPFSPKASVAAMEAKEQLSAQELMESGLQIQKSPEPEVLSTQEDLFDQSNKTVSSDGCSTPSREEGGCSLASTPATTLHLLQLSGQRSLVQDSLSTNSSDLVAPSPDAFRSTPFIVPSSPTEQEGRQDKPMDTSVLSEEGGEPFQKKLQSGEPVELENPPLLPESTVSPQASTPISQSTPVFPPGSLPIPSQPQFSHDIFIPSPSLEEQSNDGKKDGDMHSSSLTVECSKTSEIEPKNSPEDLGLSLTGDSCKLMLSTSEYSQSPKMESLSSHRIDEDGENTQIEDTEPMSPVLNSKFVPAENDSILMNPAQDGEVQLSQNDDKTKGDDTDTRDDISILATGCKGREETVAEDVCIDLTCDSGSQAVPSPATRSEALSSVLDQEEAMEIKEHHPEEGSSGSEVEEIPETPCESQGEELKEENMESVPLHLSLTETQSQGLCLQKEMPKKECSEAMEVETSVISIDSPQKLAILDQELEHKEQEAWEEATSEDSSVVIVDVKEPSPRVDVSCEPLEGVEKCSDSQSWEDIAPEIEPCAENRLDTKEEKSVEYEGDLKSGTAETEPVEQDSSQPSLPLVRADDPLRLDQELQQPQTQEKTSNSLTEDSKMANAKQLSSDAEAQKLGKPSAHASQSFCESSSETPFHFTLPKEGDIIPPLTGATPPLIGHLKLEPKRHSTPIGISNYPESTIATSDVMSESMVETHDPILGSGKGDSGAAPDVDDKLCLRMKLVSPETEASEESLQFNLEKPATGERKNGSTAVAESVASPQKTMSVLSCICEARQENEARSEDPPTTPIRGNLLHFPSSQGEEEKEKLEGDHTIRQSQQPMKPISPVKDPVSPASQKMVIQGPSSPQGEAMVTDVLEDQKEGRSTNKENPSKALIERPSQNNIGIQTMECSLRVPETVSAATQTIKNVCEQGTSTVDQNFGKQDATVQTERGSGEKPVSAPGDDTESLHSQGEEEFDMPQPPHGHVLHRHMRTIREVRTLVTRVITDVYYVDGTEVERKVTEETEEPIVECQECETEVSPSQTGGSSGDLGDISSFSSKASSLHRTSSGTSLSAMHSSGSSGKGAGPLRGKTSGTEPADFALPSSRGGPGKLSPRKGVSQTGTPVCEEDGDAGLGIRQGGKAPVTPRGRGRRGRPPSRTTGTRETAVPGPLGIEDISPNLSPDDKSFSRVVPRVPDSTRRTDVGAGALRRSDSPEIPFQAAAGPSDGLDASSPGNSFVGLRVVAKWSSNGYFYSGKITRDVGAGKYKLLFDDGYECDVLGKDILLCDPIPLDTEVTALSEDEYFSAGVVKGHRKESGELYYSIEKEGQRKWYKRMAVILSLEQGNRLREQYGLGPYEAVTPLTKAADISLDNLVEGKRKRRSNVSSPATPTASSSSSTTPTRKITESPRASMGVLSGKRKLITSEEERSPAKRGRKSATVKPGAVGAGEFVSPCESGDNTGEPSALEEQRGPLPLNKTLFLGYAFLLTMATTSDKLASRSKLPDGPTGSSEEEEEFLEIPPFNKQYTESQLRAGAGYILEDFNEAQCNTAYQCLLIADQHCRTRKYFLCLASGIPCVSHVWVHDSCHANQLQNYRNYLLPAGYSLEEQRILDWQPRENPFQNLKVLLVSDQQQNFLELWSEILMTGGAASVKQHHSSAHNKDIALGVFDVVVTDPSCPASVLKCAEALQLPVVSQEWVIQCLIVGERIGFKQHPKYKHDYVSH
USP28^hIF2 N-terminal region (aa1–650) (Q96RU2, residues 1-650): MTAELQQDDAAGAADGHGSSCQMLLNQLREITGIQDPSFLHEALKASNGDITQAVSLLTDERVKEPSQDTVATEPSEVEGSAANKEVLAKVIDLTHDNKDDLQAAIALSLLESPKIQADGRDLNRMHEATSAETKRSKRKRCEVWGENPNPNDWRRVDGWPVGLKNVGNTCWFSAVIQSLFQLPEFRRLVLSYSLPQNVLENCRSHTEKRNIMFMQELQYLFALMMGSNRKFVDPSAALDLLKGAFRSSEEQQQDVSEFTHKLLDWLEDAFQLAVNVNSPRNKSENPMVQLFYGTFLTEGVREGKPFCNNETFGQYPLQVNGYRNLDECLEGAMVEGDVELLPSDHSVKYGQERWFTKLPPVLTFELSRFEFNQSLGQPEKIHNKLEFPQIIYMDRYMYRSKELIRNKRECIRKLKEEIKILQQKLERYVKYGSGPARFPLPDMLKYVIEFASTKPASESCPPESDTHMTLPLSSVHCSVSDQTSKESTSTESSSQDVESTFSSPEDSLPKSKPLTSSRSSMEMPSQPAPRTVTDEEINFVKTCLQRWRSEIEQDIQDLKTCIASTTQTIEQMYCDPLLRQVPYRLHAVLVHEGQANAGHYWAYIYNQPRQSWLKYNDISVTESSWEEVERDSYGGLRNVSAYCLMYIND
USP28^hIF2 D255N P287S (Q96RU2-2, form named): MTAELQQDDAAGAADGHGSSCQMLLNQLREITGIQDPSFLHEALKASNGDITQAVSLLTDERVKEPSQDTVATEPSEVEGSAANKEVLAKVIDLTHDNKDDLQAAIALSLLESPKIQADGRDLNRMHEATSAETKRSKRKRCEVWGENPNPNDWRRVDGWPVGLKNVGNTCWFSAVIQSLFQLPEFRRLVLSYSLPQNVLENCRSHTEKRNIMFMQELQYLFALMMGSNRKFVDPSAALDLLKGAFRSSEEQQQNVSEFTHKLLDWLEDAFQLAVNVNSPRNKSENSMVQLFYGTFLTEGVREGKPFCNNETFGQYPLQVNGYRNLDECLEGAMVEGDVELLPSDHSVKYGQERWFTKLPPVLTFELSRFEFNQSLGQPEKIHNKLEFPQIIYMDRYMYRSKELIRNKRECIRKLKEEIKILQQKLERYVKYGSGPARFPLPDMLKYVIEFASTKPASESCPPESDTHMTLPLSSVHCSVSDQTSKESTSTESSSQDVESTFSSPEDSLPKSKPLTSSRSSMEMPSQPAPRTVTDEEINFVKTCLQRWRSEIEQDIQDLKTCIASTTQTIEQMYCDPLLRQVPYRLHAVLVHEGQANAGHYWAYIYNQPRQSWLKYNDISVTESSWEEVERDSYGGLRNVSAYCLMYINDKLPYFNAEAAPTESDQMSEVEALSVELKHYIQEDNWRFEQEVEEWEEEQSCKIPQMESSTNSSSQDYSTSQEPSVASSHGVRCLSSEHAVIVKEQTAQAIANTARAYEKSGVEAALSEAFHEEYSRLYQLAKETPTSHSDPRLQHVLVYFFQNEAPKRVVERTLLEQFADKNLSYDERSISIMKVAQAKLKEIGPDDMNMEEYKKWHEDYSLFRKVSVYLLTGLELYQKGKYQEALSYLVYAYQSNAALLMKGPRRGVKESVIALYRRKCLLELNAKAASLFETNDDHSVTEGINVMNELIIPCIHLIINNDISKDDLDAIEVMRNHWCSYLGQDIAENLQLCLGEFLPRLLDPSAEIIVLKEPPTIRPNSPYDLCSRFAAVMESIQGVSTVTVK
USP28^hIF2 Δ13 (C-terminal truncation of the last 13 amino acids) (Q96RU2-2, form named): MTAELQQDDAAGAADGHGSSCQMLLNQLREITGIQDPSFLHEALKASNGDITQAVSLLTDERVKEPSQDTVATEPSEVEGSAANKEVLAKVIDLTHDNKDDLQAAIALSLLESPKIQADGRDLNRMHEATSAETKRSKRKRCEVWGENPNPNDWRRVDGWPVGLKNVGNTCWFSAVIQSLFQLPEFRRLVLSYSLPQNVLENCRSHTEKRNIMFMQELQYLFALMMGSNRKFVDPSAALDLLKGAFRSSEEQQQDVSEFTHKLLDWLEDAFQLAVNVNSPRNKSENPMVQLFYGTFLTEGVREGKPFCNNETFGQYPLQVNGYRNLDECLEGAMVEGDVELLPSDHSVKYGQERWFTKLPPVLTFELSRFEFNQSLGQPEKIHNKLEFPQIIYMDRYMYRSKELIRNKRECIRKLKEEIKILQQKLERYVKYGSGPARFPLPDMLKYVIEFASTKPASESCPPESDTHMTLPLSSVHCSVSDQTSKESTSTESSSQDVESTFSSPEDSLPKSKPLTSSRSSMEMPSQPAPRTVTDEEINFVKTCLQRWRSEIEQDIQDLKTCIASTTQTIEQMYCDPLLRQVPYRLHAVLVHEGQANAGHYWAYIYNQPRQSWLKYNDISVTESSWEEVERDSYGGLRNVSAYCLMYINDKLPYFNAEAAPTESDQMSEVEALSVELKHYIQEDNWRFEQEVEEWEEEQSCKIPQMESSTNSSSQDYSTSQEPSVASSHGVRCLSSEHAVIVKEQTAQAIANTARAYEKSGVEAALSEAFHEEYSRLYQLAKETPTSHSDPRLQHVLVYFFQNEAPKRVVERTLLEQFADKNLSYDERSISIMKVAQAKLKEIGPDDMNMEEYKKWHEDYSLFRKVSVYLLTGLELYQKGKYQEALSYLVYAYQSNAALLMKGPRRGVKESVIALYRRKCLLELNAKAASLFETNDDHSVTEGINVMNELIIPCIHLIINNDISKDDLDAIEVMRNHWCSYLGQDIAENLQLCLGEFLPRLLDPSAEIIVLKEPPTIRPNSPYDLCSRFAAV
USP28^hIF2 V541E L545E (dimerization mutant) (Q96RU2-2, form named): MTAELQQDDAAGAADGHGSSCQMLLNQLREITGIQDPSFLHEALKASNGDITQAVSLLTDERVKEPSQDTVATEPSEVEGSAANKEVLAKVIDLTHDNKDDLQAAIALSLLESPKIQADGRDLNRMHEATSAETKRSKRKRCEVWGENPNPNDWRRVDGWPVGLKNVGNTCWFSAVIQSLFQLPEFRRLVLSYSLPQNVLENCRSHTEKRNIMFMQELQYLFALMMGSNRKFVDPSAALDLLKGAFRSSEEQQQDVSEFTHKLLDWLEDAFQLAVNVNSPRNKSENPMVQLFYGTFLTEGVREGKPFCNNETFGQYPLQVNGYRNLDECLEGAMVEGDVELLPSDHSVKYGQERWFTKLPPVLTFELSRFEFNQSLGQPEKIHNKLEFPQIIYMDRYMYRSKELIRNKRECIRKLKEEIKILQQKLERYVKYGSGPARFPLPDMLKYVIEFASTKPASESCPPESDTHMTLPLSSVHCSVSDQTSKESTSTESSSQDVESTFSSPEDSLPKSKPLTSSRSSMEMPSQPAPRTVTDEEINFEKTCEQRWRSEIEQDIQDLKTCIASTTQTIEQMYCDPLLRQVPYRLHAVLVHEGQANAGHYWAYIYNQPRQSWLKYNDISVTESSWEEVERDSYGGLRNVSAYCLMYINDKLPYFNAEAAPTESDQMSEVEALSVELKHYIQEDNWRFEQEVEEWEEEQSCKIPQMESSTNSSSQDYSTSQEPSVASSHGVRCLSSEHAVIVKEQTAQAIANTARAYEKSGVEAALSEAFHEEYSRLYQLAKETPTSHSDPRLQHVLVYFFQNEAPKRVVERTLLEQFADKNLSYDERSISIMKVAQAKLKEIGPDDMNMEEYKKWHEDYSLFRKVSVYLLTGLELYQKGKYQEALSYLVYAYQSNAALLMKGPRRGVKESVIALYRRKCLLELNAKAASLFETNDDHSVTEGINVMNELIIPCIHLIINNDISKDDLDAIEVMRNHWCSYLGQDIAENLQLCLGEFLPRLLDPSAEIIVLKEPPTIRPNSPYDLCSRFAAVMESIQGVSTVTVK

These substances were tested against p53-binding protein 1 (53BP1) (human (endogenous in RPE1)) (UniProt Q12888) (assay: co-IP; anti-53BP1 antibody and Protein A magnetic beads, 1-2 mg lysate of RPE1 or USP28∆ RPE1 cells with transgenes, arrested in mitosis with nocodazole (100 ng/ml, 8 or 16 h), in some panels also released 6 h into G1; 20 mM Tris-HCl pH 7.5, 50 mM NaCl, 0.5% Triton X-100, 5 mM EGTA, 1 mM DTT, 2 mM MgCl2, 4 °C; blots for USP28 or FLAG and p53).
In the case of “USP28^hIF2 D255N P287S (from UniProt Q96RU2-2 1-1045)”, the binding is reported as “binds”.
For “USP28^hIF2 Δ13 (C-terminal truncation of the last 13 amino acids) (from UniProt Q96RU2-2 1-1032) (domain or fragment)”, the binding was “no binding”.
For “USP28^hIF2 V541E L545E (dimerization mutant) (from UniProt Q96RU2-2 1-1045)”, the binding was “no binding”.
With “USP28^hIF2 R732C (from UniProt Q96RU2-2 1-1045)” the binding was “no binding”.
With “USP28^hIF2 R141C (from UniProt Q96RU2-2 1-1045)” the binding was “binds”.
For “USP28^hIF2 ∆460–520 (loop deletion) (from UniProt Q96RU2-2 1-1045)”, the binding was “binds”.
With “USP28^hIF2 N-terminal region (aa1–650) (from UniProt Q96RU2-2 1-650) (domain or fragment)” the binding was “no binding”.
“USP28^hIF2 C171A (from UniProt Q96RU2-2 1-1045)” was tested, and the binding was “binds”.
“USP28^hIF2 C-terminal region alone (aa651–1045) (from UniProt Q96RU2-2 651-1045) (domain or fragment)” was tested, and the binding was “no binding”.
“USP28^hIF2 (human isoform 2) wildtype transgene (from UniProt Q96RU2-2 1-1045)” was tested, and the binding was “binds”.
With “USP28^hIF2 P953L (from UniProt Q96RU2-2 1-1045)” the binding was “no binding”.
With “USP28^hIF2 R1018Q (from UniProt Q96RU2-2 1-1045)” the binding was “no binding”.
“USP28^hIF2 G903R (from UniProt Q96RU2-2 1-1045)” was tested, and the binding was “no binding”.
